Measurements reported in a collection of fitness landscapes (doi:10.1016/j.celrep.2020.107928).
Whole data set: some 81,000 sequences, median “one-hybrid fitness for binding parS DNA” near -0.17, cut for the highest 2% near 0.51. Some of the results follow.

B1: Caulobacter ParB omega fusion; a variant is named by its letters at X, in order, B8GW30 (parent)
chain: MESVVVGEPGMSEGRRGLGRGLSALLGEVDAAPAQAPGEQLGGSREAPIEILQRNPDQPRRTFREEDLEDLSNSIREKGVLQPILVRPSPDTAGEYQIVAGERAWRAAQRAGLKTVPIMVRELDDLAVLEIGIIENVQRADLNVLEEALSYKVLMEKFERTQENIAQTIGKSXSHVANXMRLLXLPDEVQSYLVSGELTAXHARAIAAAADPVALAKQIIEGGLSVRETEALARKAPNLSAGKSKGGRPPRVKDTDTQALESDLSSVLGLDVSIDHRGSTGTLTITYATLEQLDDLCNRLTRGI

Variants of: B1
Test: one-hybrid fitness for binding parS DNA (scaled: cognate 1, non-cognate 0); higher = stronger binding
Conditions: with parS DNA site
Procedure, shortened: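 Caulobacter ParB libraries with four specificity codons randomised were screened by bacterial one-hybrid selection in the E. coli USO strain, using a HIS3 reporter whose site lies 19 bp from the promoter. Selection ran for 48 hours at 37°C on M9 lacking histidine, with 0.1 mM IPTG and 5 mM 3-AT. Plasmids were Illumina-sequenced before and after selection, three replicate libraries were pooled, and variants with under 10 reads were dropped. Fitness is the log change in each variant's read ratio to wild type, rescaled against the cognate and non-cognate sites.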

| Variant | one-hybrid fitness for binding parS DNA |
| --- | --- |
| LKVA | ≤ 0.2 |
| PRDR | ≤ 0.2 |
| RNHF | ≤ 0.2 |
| TCSE | ≤ 0.2 |
| QCGS | ≤ 0.2 |
| RPNT | ≤ 0.2 |
| RWQF | ≤ 0.2 |
| PPDW | ≤ 0.2 |
| EALD | ≤ 0.2 |
| DYNG | ≤ 0.2 |
| YELA | ≤ 0.2 |
| KWSR | ≤ 0.2 |
| AFMD | ≤ 0.2 |
| CQSG | ≤ 0.2 |
| TSWF | ≤ 0.2 |
| GYAA | ≤ 0.2 |
| MCQV | ≤ 0.2 |
| RNAG | 0.853 |
| ACPP | ≤ 0.2 |
| SLTY | ≤ 0.2 |
| TLPV | ≤ 0.2 |
| GWDS | ≤ 0.2 |
| THRA | ≤ 0.2 |
| RQYG | 0.994 |

| Variant | one-hybrid fitness for binding parS DNA |
| --- | --- |
| SCHS | ≤ 0.2 |
| SCKL | ≤ 0.2 |
| EYQE | ≤ 0.2 |
| PDWS | ≤ 0.2 |
| EVNV | ≤ 0.2 |
| QPFI | ≤ 0.2 |
| PGPP | ≤ 0.2 |
| QQDF | ≤ 0.2 |
| AGTI | ≤ 0.2 |
| CKDG | ≤ 0.2 |
| VLVE | ≤ 0.2 |
| DTEF | ≤ 0.2 |
| SQDM | ≤ 0.2 |
| HAIN | ≤ 0.2 |
| VIAS | ≤ 0.2 |
| WPKT | ≤ 0.2 |
| WACV | ≤ 0.2 |
| SEWF | ≤ 0.2 |
| RMNV | ≤ 0.2 |
| RETC | ≤ 0.2 |
| SNNR | ≤ 0.2 |
| ARDI | ≤ 0.2 |
| GVLG | ≤ 0.2 |
| KYVP | 0.208 |

| Variant | one-hybrid fitness for binding parS DNA |
| --- | --- |
| ILEY | ≤ 0.2 |
| SVWV | ≤ 0.2 |
| IQRH | ≤ 0.2 |
| CWRI | ≤ 0.2 |
| HCYG | ≤ 0.2 |
| YTWG | ≤ 0.2 |
| CESG | ≤ 0.2 |
| GAWI | ≤ 0.2 |
| HYKT | ≤ 0.2 |
| SQNR | ≤ 0.2 |
| IDVC | ≤ 0.2 |
| APED | ≤ 0.2 |
| QKIF | ≤ 0.2 |
| IDPV | ≤ 0.2 |
| MVLR | ≤ 0.2 |
| FYYS | ≤ 0.2 |
| FALS | ≤ 0.2 |
| KRAQ | ≤ 0.2 |
| EGAT | ≤ 0.2 |
| EQML | ≤ 0.2 |
| VIYM | ≤ 0.2 |
| FYCS | ≤ 0.2 |
| HVTT | ≤ 0.2 |
| PATY | ≤ 0.2 |

| Variant | one-hybrid fitness for binding parS DNA |
| --- | --- |
| FHPC | ≤ 0.2 |
| QLDE | ≤ 0.2 |
| AVIF | ≤ 0.2 |
| FMSS | ≤ 0.2 |
| LHLV | ≤ 0.2 |
| RCFK | ≤ 0.2 |
| VSRQ | ≤ 0.2 |
| QMSW | ≤ 0.2 |
| AWEF | ≤ 0.2 |
| RNIC | 0.523 |
| TIRF | ≤ 0.2 |
| HNST | ≤ 0.2 |
| QCNL | ≤ 0.2 |
| AVFC | ≤ 0.2 |
| AIHF | ≤ 0.2 |
| TPDT | ≤ 0.2 |
| YSVA | ≤ 0.2 |
| RETY | ≤ 0.2 |
| RVTS | 0.972 |
| QRLR | ≤ 0.2 |
| RHGM | 0.232 |
| SVDR | ≤ 0.2 |
| VYNL | ≤ 0.2 |
| RSPR | ≤ 0.2 |

| Variant | one-hybrid fitness for binding parS DNA |
| --- | --- |
| WGSW | ≤ 0.2 |
| REIT | ≤ 0.2 |
| TYTT | ≤ 0.2 |
| IEHY | ≤ 0.2 |
| DTDF | ≤ 0.2 |
| NQHG | ≤ 0.2 |
| PESG | ≤ 0.2 |
| EECT | ≤ 0.2 |
| YRFL | ≤ 0.2 |
| SPEC | ≤ 0.2 |
| SYFR | ≤ 0.2 |
| RTTA | 0.612 |
| WVSC | ≤ 0.2 |
| CNRD | ≤ 0.2 |
| RHKE | ≤ 0.2 |
| RLMW | 0.247 |
| RFYM | 0.265 |
| SQWR | ≤ 0.2 |
| RSVC | 0.775 |
| CPRR | ≤ 0.2 |
| EAPL | ≤ 0.2 |
| GARD | ≤ 0.2 |
| NVTT | ≤ 0.2 |
| PRER | ≤ 0.2 |

| Variant | one-hybrid fitness for binding parS DNA |
| --- | --- |
| EVII | ≤ 0.2 |
| LFAP | ≤ 0.2 |
| GEST | ≤ 0.2 |
| QHHA | ≤ 0.2 |
| AIVQ | ≤ 0.2 |
| QDPY | ≤ 0.2 |
| HTAG | ≤ 0.2 |
| FVIV | ≤ 0.2 |
| TKHG | ≤ 0.2 |
| LCHC | ≤ 0.2 |
| AITR | ≤ 0.2 |
| RFAN | 0.372 |
| MLVG | ≤ 0.2 |
| CPTF | ≤ 0.2 |
| TRQC | ≤ 0.2 |
| RPDS | ≤ 0.2 |
| AIGG | ≤ 0.2 |
| MNRR | ≤ 0.2 |
| AENK | ≤ 0.2 |
| NRPN | ≤ 0.2 |
| FKQT | ≤ 0.2 |
| GRGF | ≤ 0.2 |
| MYLV | ≤ 0.2 |
| GSGF | ≤ 0.2 |

| Variant | one-hybrid fitness for binding parS DNA |
| --- | --- |
| PESN | ≤ 0.2 |
| RIQN | 0.449 |
| PHSD | ≤ 0.2 |
| VYAG | ≤ 0.2 |
| VAGV | ≤ 0.2 |
| NKNR | ≤ 0.2 |
| AYLF | ≤ 0.2 |
| ICVR | ≤ 0.2 |
| FLDG | ≤ 0.2 |
| AIPP | ≤ 0.2 |
| SPTG | ≤ 0.2 |
| PIKC | ≤ 0.2 |
| WRSQ | ≤ 0.2 |
| AIGC | ≤ 0.2 |
| KQPF | ≤ 0.2 |
| DRRS | ≤ 0.2 |
| GYHC | ≤ 0.2 |
| TSFT | ≤ 0.2 |
| NTMV | ≤ 0.2 |
| KHLS | ≤ 0.2 |
| YHAC | ≤ 0.2 |
| SVPT | ≤ 0.2 |
| GMHS | ≤ 0.2 |
| NPEE | ≤ 0.2 |

| Variant | one-hybrid fitness for binding parS DNA |
| --- | --- |
| CTFG | ≤ 0.2 |
| NCAG | ≤ 0.2 |
| RVLE | ≤ 0.2 |
| GRMT | ≤ 0.2 |
| DLTI | ≤ 0.2 |
| THYL | ≤ 0.2 |
| VTEG | ≤ 0.2 |
| EDQT | ≤ 0.2 |
| NPQC | ≤ 0.2 |
| QKRD | ≤ 0.2 |
| TIIK | ≤ 0.2 |
| VPPP | ≤ 0.2 |
| TCIM | ≤ 0.2 |
| VNTW | ≤ 0.2 |
| CVLS | ≤ 0.2 |
| LSYG | ≤ 0.2 |
| TQPM | ≤ 0.2 |
| NLGP | ≤ 0.2 |
| ALVS | ≤ 0.2 |
| CFSA | ≤ 0.2 |
| ALNV | ≤ 0.2 |
| KWQA | ≤ 0.2 |
| CSKC | ≤ 0.2 |
| SVVR | ≤ 0.2 |

| Variant | one-hybrid fitness for binding parS DNA |
| --- | --- |
| WVRY | ≤ 0.2 |
| SHWG | ≤ 0.2 |
| QITR | ≤ 0.2 |
| GKTT | ≤ 0.2 |
| RQGA | 0.563 |
| QMKI | ≤ 0.2 |
| AEYG | ≤ 0.2 |
| NVGL | ≤ 0.2 |
| ALIG | ≤ 0.2 |
| FGIR | ≤ 0.2 |
| RCTF | 0.223 |
| WMAW | ≤ 0.2 |
| MLTT | ≤ 0.2 |
| FTYK | ≤ 0.2 |
| THSM | ≤ 0.2 |
| VADT | ≤ 0.2 |
| YMTG | ≤ 0.2 |
| VLGA | ≤ 0.2 |
| FHSG | ≤ 0.2 |
| ACVS | ≤ 0.2 |
| LPLF | ≤ 0.2 |
| GSIR | ≤ 0.2 |
| PGHV | ≤ 0.2 |
| PGTY | ≤ 0.2 |

| Variant | one-hybrid fitness for binding parS DNA |
| --- | --- |
| DQPC | ≤ 0.2 |
| YTVL | ≤ 0.2 |
| CLAG | ≤ 0.2 |
| PIPV | ≤ 0.2 |
| KPDT | ≤ 0.2 |
| THMG | ≤ 0.2 |
| ERLV | ≤ 0.2 |
| CICC | ≤ 0.2 |
| LAHC | ≤ 0.2 |
| YMHS | ≤ 0.2 |
| HNSL | ≤ 0.2 |
| CRVH | ≤ 0.2 |
| EMYT | ≤ 0.2 |
| KRNH | ≤ 0.2 |
| IKKG | ≤ 0.2 |
| GALR | ≤ 0.2 |
| PRRW | ≤ 0.2 |
| SKTI | ≤ 0.2 |
| LAMV | ≤ 0.2 |
| SNAA | ≤ 0.2 |
| EQSV | ≤ 0.2 |
| NNWM | ≤ 0.2 |
| IQLG | ≤ 0.2 |
| NLST | ≤ 0.2 |

| Variant | one-hybrid fitness for binding parS DNA |
| --- | --- |
| GHLP | ≤ 0.2 |
| QQEA | ≤ 0.2 |
| LLER | ≤ 0.2 |
| RALM | 0.34 |
| KAPI | ≤ 0.2 |
| RQMI | ≤ 0.2 |
| STRW | ≤ 0.2 |
| TVRT | ≤ 0.2 |
| AMTL | ≤ 0.2 |
| SFWT | ≤ 0.2 |
| PHMC | ≤ 0.2 |
| YYRQ | ≤ 0.2 |
| NHQV | ≤ 0.2 |
| FRDR | ≤ 0.2 |
| HCKS | ≤ 0.2 |
| YTTS | ≤ 0.2 |
| WSHI | ≤ 0.2 |
| FGES | ≤ 0.2 |
| DSMW | ≤ 0.2 |
| ESGS | ≤ 0.2 |
| KWSG | ≤ 0.2 |
| FTDR | ≤ 0.2 |
| TPRC | ≤ 0.2 |
| HKPK | ≤ 0.2 |

| Variant | one-hybrid fitness for binding parS DNA |
| --- | --- |
| RDRC | ≤ 0.2 |
| CDHC | ≤ 0.2 |
| KLTG | ≤ 0.2 |
| AVPM | ≤ 0.2 |
| HTWS | ≤ 0.2 |
| GMII | ≤ 0.2 |
| ELFS | ≤ 0.2 |
| NCIY | ≤ 0.2 |
| AGIY | ≤ 0.2 |
| TPPL | ≤ 0.2 |
| LYEY | ≤ 0.2 |
| YSVD | ≤ 0.2 |
| NRNM | ≤ 0.2 |
| AIRK | ≤ 0.2 |
| IDHA | ≤ 0.2 |
| CATC | ≤ 0.2 |
| GKDV | ≤ 0.2 |
| TPRD | ≤ 0.2 |
| LIID | ≤ 0.2 |
| LLQK | ≤ 0.2 |
| TGLF | ≤ 0.2 |
| QPNV | ≤ 0.2 |
| RWNR | ≤ 0.2 |
| TRRN | ≤ 0.2 |

| Variant | one-hybrid fitness for binding parS DNA |
| --- | --- |
| CARW | ≤ 0.2 |
| RVYT | 0.93 |
| GNQS | ≤ 0.2 |
| STKT | ≤ 0.2 |
| LLLV | ≤ 0.2 |
| FYYI | ≤ 0.2 |
| HFQG | ≤ 0.2 |
| VYQD | ≤ 0.2 |
| PAEK | ≤ 0.2 |
| QSIP | ≤ 0.2 |
| YKNV | ≤ 0.2 |
| CIAG | ≤ 0.2 |
| THGK | ≤ 0.2 |
| RTSH | ≤ 0.2 |
| DSPQ | ≤ 0.2 |
| TIAC | ≤ 0.2 |
| RIIH | 0.233 |
| VTKE | ≤ 0.2 |
